Experimental findings from PubChem BioAssay AID360 (National Center for Advancing Translational Sciences (NCATS), 2006) are described below.

Screen size: about 48,000 compounds; about 550 (1.1%) were called active. Not shown: some 4% with an inconclusive outcome. No stated cut-off is given here; in the data, active means potency below about 15 µM; inconclusive means mostly about 16 µM to 33 µM; inactive means weaker than that. The list shows a part of the results.
Potency means the concentration at half of the fitted maximal effect.

The test concerns the target Lysosomal acid glucosylceramidase (Homo sapiens) (UniProt P04062). The experiment in a line: Glucocerebrosidase.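 Further: the screen sought inhibitors.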 The note with it: purified enzyme, resorufin glucoside fluorescence (screen aimed at inhibitors), 20 min. An outline of the steps: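 Normal human glucocerebrosidase (0.2 nM final) was assayed with resorufin β-D-glucopyranoside (30 uM final) in 50mM citric acid/KH2PO4, 10mM sodium taurocholate, 0.01% tween-20, pH 5.9. Compounds were titrated; fluorescence (Ex 548, Em 600) read after 20 min at RT.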
Sequence of UniProt P04062 (P04062 whole entry, looked up): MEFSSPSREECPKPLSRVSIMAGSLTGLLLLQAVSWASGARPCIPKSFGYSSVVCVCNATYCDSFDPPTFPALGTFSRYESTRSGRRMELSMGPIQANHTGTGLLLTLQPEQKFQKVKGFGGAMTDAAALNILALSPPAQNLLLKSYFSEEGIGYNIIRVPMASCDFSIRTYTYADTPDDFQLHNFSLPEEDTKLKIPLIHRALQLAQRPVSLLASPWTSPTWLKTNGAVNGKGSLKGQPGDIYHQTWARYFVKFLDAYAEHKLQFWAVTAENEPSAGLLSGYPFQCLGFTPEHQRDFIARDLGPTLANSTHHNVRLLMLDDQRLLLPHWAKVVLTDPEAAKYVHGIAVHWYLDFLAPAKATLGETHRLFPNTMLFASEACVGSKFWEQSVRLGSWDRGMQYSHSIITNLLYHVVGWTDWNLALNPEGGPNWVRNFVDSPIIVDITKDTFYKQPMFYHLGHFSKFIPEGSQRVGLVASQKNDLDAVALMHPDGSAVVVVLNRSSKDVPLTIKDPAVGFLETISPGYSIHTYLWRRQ
As to `NC1=NC(=O)CC(C(=O)NCc2ccccc2)S1` (configuration not stated), the Potency is inactive: > 76.9 µM. Then `CC(=O)NCCn1c(SCC(=O)NCC2CCCO2)nc2ccccc2c1=O` (configuration not stated), with inactive: > 76.9 µM; and `COCCN1C(=O)c2ccccc2C(C(=O)NCc2ccco2)C1c1c[nH]c2ccccc12` (configuration not stated), with inactive: > 76.9 µM; and `COC(=O)C1ON2OC(C(=O)OC)C(C(=O)OC)C2C1CC(C)=O` (configuration not stated), with inactive: > 76.9 µM.

For the compound `O=C1CCC(=O)N1OCCCCOc1ccccc1`, the Potency is inactive: > 76.9 µM.

Consider `COc1ccc(-n2nc3c(c2NC(=O)c2c(-c4ccccc4Cl)noc2C)CS(=O)(=O)C3)cc1`, for which the Potency was inactive: > 76.9 µM. To `CCOC(=O)N1CCN(C(=O)c2ccc3c(=O)n(CCC4=CCCCC4)c(=O)[nH]c3c2)CC1` belongs inactive: > 76.9 µM; to `COc1cc(Cl)c(C)cc1NC(=O)CSc1nnc(-c2ccco2)n1CC(C)C`, inactive: > 76.9 µM; to `CC1(C)C2CCC1(CS(=O)(=O)NCc1ccc(C(=O)O)cc1)C(=O)C2` (configuration not stated), inactive: > 76.9 µM. Consider `CCOC(=O)N1CCC(NC(=O)CN2C(=O)COc3ccc(C(C)(C)C)cc32)CC1`, for which the Potency is inactive: > 76.9 µM. To `O=C(OCC(=O)N1CCc2ccccc21)c1ccc[n+]([O-])c1` belongs inactive: > 76.9 µM; to `O=C(NC(Cc1c[nH]c2ccccc12)c1nnc2n1CCCCC2)c1cccs1` (configuration not stated), inactive: > 76.9 µM; to `CNc1nc(N2CCc3ccccc32)ncc1F`, inactive: > 76.9 µM. Then `O=C(CN1C(=O)c2ccccc2S1(=O)=O)NCc1ccccn1`, with inactive: > 76.9 µM. Then `CCC(=O)N1CCc2cc(S(=O)(=O)N3CCc4ccccc4C3)ccc21`, with inactive: > 76.9 µM. `O=C(CNCC1CCCO1)N1CCCc2ccccc21` (configuration not stated): the Potency was inactive: > 76.9 µM. Then `COc1ccc(-c2c3c(=O)n(C)c(=O)n(C)c3cn2C2CCCCC2)cc1`, with inactive: > 76.9 µM. Then `Cc1cccc(N(CC(=O)NCc2ccccc2)C(=O)Cn2nnc(-c3ccc(C)o3)n2)c1`, with inactive: > 76.9 µM. Then `COc1ccc(O)c(C(=O)c2cnc3onc(C)c3c2)c1`, with inactive: > 76.9 µM. Consider `O=C(NCCc1ccncc1)Nc1ccc(Cl)cc1`, for which the Potency is inactive: > 76.9 µM.

Take `CCOC(=O)c1[nH]c2ccc(OC)cc2c1NC(=O)CN1CCSCC1`: the Potency was inactive: > 76.9 µM. Consider `O=C(CC(Cc1ccccc1)C(=O)O)NCCc1ccc2c(c1)OCO2` (configuration not stated), for which the Potency is inactive: > 76.9 µM. Then `COc1cc2nc(C3CCC3)n(NC(=O)C3CCC(OC)CC3)c(=O)c2cc1OC` (configuration not stated), with inactive: > 76.9 µM. As for `CC(=O)Nc1ccccc1NC(=O)CN(C)S(=O)(=O)c1ccc(C)cc1`, the Potency is inactive: > 76.9 µM.

With `Cc1cc(C(F)(F)F)nn1Cc1ccc(C(=O)NCc2ccco2)o1`, the Potency was inactive: > 76.9 µM. To `CCOC(=O)c1sc(NC(C)=O)c(C(=O)OCC)c1C` belongs inactive: > 76.9 µM. To `COc1cccc(OC)c1C(=O)Nc1ccccc1C(=O)N1CCOCC1` belongs inactive: > 76.9 µM; to `COc1ccc2nc3sc(C(=O)N4CCN(C)CC4)cc3cc2c1`, “inactive”; to `O=C(c1cc(-c2ccco2)on1)N1CCN(C(c2ccccc2)c2ccccc2)CC1`, inactive: > 76.9 µM. To `OCCNc1cc(-n2nc(-c3ccccc3)cc2-c2ccccc2)ncn1` belongs inactive: > 76.9 µM. Regarding `O=C(CCSc1ccccc1)Nc1ncccn1`, the Potency was inactive: > 76.9 µM. To `CC(C)(C)N1C(=O)Cc2c1nc(N)c1c(N)nc(N3CCCCC3CO)c(C#N)c21` (configuration not stated) belongs “inactive”; to `CCOC(=O)c1cc(NC(=O)c2ccoc2C)cc(C(=O)OCC)c1`, inactive: > 76.9 µM; to `O=C(Nc1ccc(N2CCCCC2)c(Cl)c1)c1cccnc1`, inactive: > 76.9 µM. To `C#CCOC(=O)CCC(=O)Nc1cc(OC)nc(OC)n1` belongs inactive: > 76.9 µM; to `O=C1NC(=O)C2(CCC(C(=O)O)C2)N1` (configuration not stated), inactive: > 76.9 µM; to `COCCOC(=O)c1cc(C(=O)c2cc(F)ccc2O)coc1=N`, inactive: > 76.9 µM.

Consider `CCOC(=O)c1ccc(Cn2cnc3ccccc3c2=O)cc1`, for which the Potency is inactive: > 76.9 µM.

For `CCOC(=O)c1ccc(S(=O)(=O)n2c(CN3CCCCC3)nc3ccccc32)cc1`, the Potency is inactive: > 76.9 µM. Then `COc1cccc(CNC(=O)c2cc3oc4ccccc4c3n2C)c1OC`, with inactive: > 76.9 µM; and `CCOC(=O)CCCCC(=O)c1[nH]c(=O)[nH]c1CSc1nc2ccccc2[nH]1`, with inactive: > 76.9 µM.

For the compound `Cc1cc(=O)[nH]c(SCc2cccc(Br)c2)n1`, the Potency is inactive: > 76.9 µM. `COC(=O)c1ccccc1N(C)S(C)(=O)=O`: the Potency was inactive: > 76.9 µM. With `COc1ccc(C2/C(=C(/O)c3ccc(Cl)cc3)C(=O)C(=O)N2CCN2CCOCC2)c(OC)c1` (configuration not stated), the Potency was inactive: > 76.9 µM.

Consider `COCCCn1c(Cc2ccccc2)nnc1SCC(=O)N1CCCCC1`, for which the Potency is inactive: > 76.9 µM. Then `Cc1ccc2cc(C#N)c(NCCNC(=O)C3CCC3)nc2c1C`, with inactive: > 76.9 µM; and `COc1cc(-c2nc3ccccn3c2NCC2CCCO2)ccc1O` (configuration not stated), with “inactive”. Regarding `COc1ccc(NC(=O)CN2CCN(S(=O)(=O)c3ccc(C(C)C)cc3)CC2)cc1OC`, the Potency was inactive: > 76.9 µM. Then `COc1cccc(NC(=O)N2CCN(c3ccc(C(F)(F)F)cn3)CC2)c1`, with inactive: > 76.9 µM; and `COCc1nc2ccccc2n1Cc1ccccc1Br`, with inactive: > 76.9 µM; and `COc1cccc(OCc2nnc(SC)n2C)c1`, with inactive: > 76.9 µM. Regarding `O=C(CN1C(=O)CCC1=O)Nc1ccc2c3c(cccc13)CC2`, the Potency is inactive: > 76.9 µM. Then `O=C(CSc1nnnn1C1CCCCC1)N1CCc2ccccc21`, with inactive: > 76.9 µM; and `Cc1cnc(-c2nnc(N(C)C(=O)C3CCCO3)s2)cn1` (configuration not stated), with inactive: > 76.9 µM; and `Clc1ccc(CSc2nnc(-c3ccncc3)o2)c(Cl)c1`, with inactive: > 76.9 µM. As for `Cc1ccc(C)n1-c1ncn[nH]1`, the Potency was inactive: > 76.9 µM.

As to `C/C(Cl)=C/Cn1c(SCCN2CCOCC2)nc2c1c(=O)[nH]c(=O)n2C`, the Potency was inactive: > 76.9 µM. Then `COC(=O)Nc1c(C)nn(Cc2ccccc2C)c1C`, with inactive: > 76.9 µM; and `Cc1ccc(-c2cc(-c3cccc(F)c3)n[nH]2)c(O)c1`, with inactive: > 76.9 µM; and `CSc1ccccc1C(=O)NC1CC2CCC1C2` (configuration not stated), with inactive: > 76.9 µM. For `CCOc1ccc(CC(=O)Nc2c(C(N)=O)oc3ccccc23)cc1OCC`, the Potency is inactive: > 76.9 µM. To `CCOC(=O)CC(=O)CSCC(=O)Nc1ccc(C)cc1` belongs inactive: > 76.9 µM; to `CCCC(c1nnnn1Cc1ccco1)N1CCC(C(N)=O)CC1` (configuration not stated), inactive: > 76.9 µM; to `CCOC(=O)c1[nH]cnc1C(=O)Nc1cccc(N)n1`, inactive: > 76.9 µM. Then `N#CC1=C(N)Oc2n[nH]c(-c3ccccc3)c2C1c1ccncc1` (configuration not stated), with inactive: > 76.9 µM; and `O=C(CSc1ncn[nH]1)Nc1nc(-c2ccccc2)ns1`, with inactive: > 76.9 µM. Then `Cc1nnc(N(C(=O)c2cnccn2)c2ccccc2)s1`, with inactive: > 76.9 µM; and `C=CCc1ccccc1OCC(O)CN1CCN(C(=O)OCC)CC1` (configuration not stated), with inactive: > 76.9 µM. On to `COc1ccccc1NS(=O)(=O)c1ccc(C)c(C(N)=O)c1`, for which the Potency is inactive: > 76.9 µM. As to `COc1ccc(C2C(C(=O)N3CCN(c4ccccc4)CC3)c3ccccc3C(=O)N2C)cc1` (configuration not stated), the Potency was inactive: > 76.9 µM. To `Cc1cc(N2CCN(c3ccccn3)CC2)n2nc(C)nc2n1` belongs inactive: > 76.9 µM; to `Cc1noc(C)c1C(=O)N1CCN(C(=O)c2sc3cc(Cl)ccc3c2Cl)CC1`, inactive: > 76.9 µM; to `C=CCN(CC=C)S(=O)(=O)c1ccc2nc(NC(=O)C(C)C)sc2c1`, inactive: > 76.9 µM. To `O=C(COC(=O)C1COc2ccccc2O1)NC(=O)NC1CCCC1` (configuration not stated) belongs inactive: > 76.9 µM.

On to `CC(=O)N1CCc2cc(Br)cc(S(=O)(=O)N3CCN(C(=O)c4ccco4)CC3)c21`, for which the Potency was inactive: > 76.9 µM. Then `CCN(CC)S(=O)(=O)c1ccc(NC(=O)Cn2cnc3ccccc3c2=O)cc1`, with inactive: > 76.9 µM; and `CC(C)(C)Nc1cccccc1=O`, with inactive: > 76.9 µM. Turning to `Cc1cccc(CN2CCNC2=O)c1`, the Potency was inactive: > 76.9 µM.

With `O=C(NCc1cn2ccccc2n1)c1ccccc1`, the Potency is inactive: > 76.9 µM. Then `CCCCCCn1cnc2c(c1=O)c1nc3ccccc3nc1n2Cc1cccs1`, with inactive: > 76.9 µM. In the case of `Cc1nnc2n1N=CC=C(c1ccccc1)S2`, the Potency is inactive: > 76.9 µM.

Take `Cc1nc(C)c(C(=O)Nc2ccccc2-c2ccccc2)o1`: the Potency is inactive: > 76.9 µM.

For the compound `COc1ccc(C2(O)CCN(C(=O)Cc3cccnc3)CC2)cc1`, the Potency was inactive: > 76.9 µM. To `COc1ccc(CCNC(=O)CCS(=O)(=O)c2cccc3nsnc23)cc1OC` belongs inactive: > 76.9 µM; to `CC(=O)Nc1ccccc1-c1ccc(C)o1`, inactive: > 76.9 µM.

As for `Clc1ccc(CSc2nncn2-c2ccccn2)cc1`, the Potency is inactive: > 76.9 µM.

Consider `Cc1ccc(NC(=O)c2c(C)nc(Nc3nc4ccccc4o3)nc2C)cc1`, for which the Potency is inactive: > 76.9 µM.

With `O=C(Nc1ccc(Oc2ccccc2)cc1)c1ccco1`, the Potency is inactive: > 76.9 µM. `O=C(Nc1ccc2c(c1)OCO2)c1cccc2c1C(=O)N(Cc1cccnc1)C2`: the Potency was inactive: > 76.9 µM. Then `Cc1ccc(NC(=O)CSc2nnc(CCCCCNC(=O)OC(C)(C)C)o2)c(C)c1`, with inactive: > 76.9 µM; and `O=C(NCC1CCCO1)C1CCCN(Cc2cnn(-c3ccccc3)c2-n2cccc2)C1` (configuration not stated), with inactive: > 76.9 µM. Turning to `CCOC(=O)CNC(=O)c1c(C)nn(-c2ccccc2)c1Cl`, the Potency is inactive: > 76.9 µM.
